PubChem BioAssay (NCATS)
Inconclusive means that the source gave no clear call. Such entries were picked first, then a sample of the others. For part of these data: A potency beside an inconclusive call is a rough fit, not a confirmed value. Active and inactive are the calls of the source. Unless noted, the call rests on the fitted dose curve; in most records, active means well fitted curve in the direction sought with a large enough effect in the repeat runs; inconclusive means weak or mixed curves; inactive means no such curve, though single readings can be large; an effect the other way counts as inactive or inconclusive.

Key:
[1] = molecular target: Retinoic acid receptor RXR-alpha (Homo sapiens) (UniProt P19793); test: qHTS assay for small molecule agonists of retinoid X receptor alpha signaling (AID 588544; calls by dose curve;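 further: 0% = DMSO basal wells and 100% = reference agonist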); details: HEK293T RXRa-UAS-bla, beta-lactamase reporter, 18 h; activation: at 76.7 µM (top of the series) unless noted
[2] = qHTS assay for small molecule agonists of the antioxidant response element (ARE) signaling pathway (AID 651741; active means well fitted activation curve with a large enough effect in the signal ratio; inconclusive means small, poorly fitted or top-dose-only effect, or effect the other way, or a change in a side signal; the % refers to the signal ratio; further: potency means the concentration at half of the fitted maximal effect; on activation: % of control where 0% means no effect); details: HepG2 ARE-bla reporter, beta-lactamase FRET ratio, 16 h; activation: at 96 µM (top of the series) unless noted
Procedure, shortened: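 Beta-lactamase reporter under ARE control in HepG2 cells, 2,000 per well, was induced by 16 h compound treatment at 37 C. Read-out was fluorescence from LiveBLAzer B/G FRET substrate after 2 h at room temperature.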

[3] = qHTS assay for small molecule disruptors of the mitochondrial membrane potential - 5 hr assay (AID 651755; calls by dose curve; further: potency means the concentration at half of the fitted maximal effect; nearly all actives have a fitted effect of over 40% in size); details: JC-1-type ratio dye; ratio change, negative = disruption: at 92.2 µM (top of the series)
Procedure, shortened: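 Membrane-potential dye readout: red aggregate (540 ex/590 em) versus green monomer (490 ex/535 em) fluorescence after 30 min dye loading, following 5 hr compound exposure at 37C of overnight-plated HepG2 cells.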

[4] = molecular target: Tumor necrosis factor (Homo sapiens) (UniProt P01375); test: qHTS assay to identify small molecules that stimulate Tumor Necrosis Factor-alpha (TNF-alpha) secretion (AID 651757; active means well fitted curve in the direction sought with a large enough effect in the signal ratio; inconclusive means small, poorly fitted or top-dose-only effect, or a change in a side signal; inactive means no such curve, though single readings can be large or run the other way; the % refers to the signal ratio; further: 0% is about no effect); details: Human cells, HTRF 665/615 ratio; activation (TNF-alpha secretion): at 92.2 µM (top of the series)
Procedure, shortened: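 Human monocytic THP-1 cells are plated, treated with compound and held at 37 C for 17 hrs. Labeled anti-TNF-alpha antibody mixture is then added; after 3 hr at room temperature, TR-FRET signal reports secreted TNF-alpha.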

[5] = qHTS assay to identify small molecules that stimulate interleukin-8 (IL-8) secretion (AID 651758; active means well fitted activation curve with a large enough effect in the signal ratio; inconclusive means small, poorly fitted or top-dose-only effect, or effect the other way, or a change in a side signal; the % refers to the signal ratio; further: potency means the concentration at half of the fitted maximal effect; on activation: 0% is about no effect); details: HTRF ratio (665/615); activation: at 92.2 µM (top of the series)
Procedure, shortened: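 Secreted IL-8 measured homogeneously by TR-FRET (two labelled anti-IL-8 antibodies, 1-3 h at room temperature) after a 16 h, 37 C compound treatment of THP-1 cells at 2000 cells/well.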

[6] = qHTS assay for small molecule agonists of the antioxidant response element (ARE) signaling pathway measured by Nrf2-dependant transcriptional activity (AID 720636); further: potency means the concentration at half of the fitted maximal effect
Procedure, shortened: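 HepG2 ARE-luc reporter line, 1% dialyzed FBS; 6 hr attachment at 37 C, compound pinned in, 16 hr at 37 C/5% CO2; ONE-Glo, 30 min RT, luminescence read.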

[7] = qHTS assay for small molecule antagonists of the retinoid-related orphan receptor gamma (ROR-gamma) signaling pathway - cell viability counter screen (AID 720652);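 further: compound exposure lasted 16 hr before ATP read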; further: potency means the concentration at half of the fitted maximal effect;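 on activity change, negative = cytotoxicity: CHO reporter cells with doxycycline-induced ROR-gamma expression; on the % scale 0 is the no-effect control and ±100 the full control effect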
Procedure, shortened: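 Steps: seed CHO cells bearing TET-inducible ROR and ROR response element-luciferase; rest 5 hr at 37 C; add compound, then doxycycline; incubate 16 hr; add CellTiter-Glo and read luminescence as ATP-based viability.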

[8] = Cell Viability - Jurkat (AID 426;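 active means dose-dependent loss of cell ATP signal giving a full or clear fitted curve, ranked by lower potency value; inconclusive means weak partial curve or response only at the top dose; inactive means no loss of viability signal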;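 further: potency means the concentration at half of the fitted maximal effect; cells exposed to compound for 40 hours at 37 °C before ATP read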); details: qHTS
Procedure, shortened: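 Cells of the human T-cell leukemia line Jurkat (E6-1) are seeded at 5000 per well, treated with compound across a concentration range for 40 hours at 37 °C, then lysed with CellTiter-Glo; luminescence reports ATP.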

[9] = Cell Viability - N2a (AID 540; active means well fitted curve in the direction sought with a large enough effect; inconclusive means small, poorly fitted or top-dose-only effect, or another doubt; inactive means no such curve, though single readings can be large; an effect the other way counts as inactive or inconclusive;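 further: cells exposed to compound for 40 h at 37 °C; plate controls were DMSO alone for no effect and tamoxifen control for full effect; nearly all actives have a fitted effect of over 45% in size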); details: N2a mouse neuroblastoma cell viability; activity change, negative = cytotoxicity: at 92.2 µM (top of the series)
Procedure, shortened: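 Cytotoxicity was scored as loss of cellular ATP in N2a cells, a mouse neuroblastoma line. Compounds are applied in a qHTS concentration series for 40 hr at 37 °C.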

[10] = Cell Viability - NIH 3T3 (AID 541; active means well fitted curve in the direction sought with a large enough effect; inconclusive means small, poorly fitted or top-dose-only effect, or another doubt; inactive means no such curve, though single readings can be large; an effect the other way counts as inactive or inconclusive;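 further: plate controls were DMSO alone for no effect and tamoxifen positive control for full effect; nearly all actives have a fitted effect of over 25% in size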); details: NIH 3T3 cell viability, qHTS; activity change, negative = cytotoxicity: at 92.2 µM (top of the series)
Procedure, shortened: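 Cells seeded at 1000/well, rested 5 hr at 37 °C, then dosed and incubated 40 hr at 37 °C. CellTiter-Glo added, 20 min room temperature, luminescence read. AC50 by Hill fit.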

[11] = molecular target: Bile acid receptor (Homo sapiens) (UniProt Q96RI1); test: qHTS assay for small molecule antagonists of farnesoid X receptor signaling (AID 588526; calls by dose curve; further: on the % scale 0 is the no-effect control and ±100 the full control effect); details: HEK293T FXR-UAS-bla, beta-lactamase ratio, antagonist mode; activity change, negative = inhibition: at 76.7 µM (top of the series)
Procedure, shortened: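 Beta-lactamase reporter antagonist mode: HEK293T FXR-UAS-bla cells, titrated compound, CDCA stimulation, 16 h 37 C, CCF4 dye 2 h RT. Data normalized to CDCA 50 uM and DMSO; Hill-fit IC50.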

[12] = molecular target: Peroxisome proliferator-activated receptor gamma (Homo sapiens) (UniProt P37231); test: qHTS assay for small molecule antagonists of peroxisome proliferator-activated receptor gamma signaling (AID 588537; active means well fitted inhibition curve with a large enough effect in the signal ratio, with a control signal flat, not every such curve was filed as active; inconclusive means small, poorly fitted or top-dose-only effect, or effect the other way, or a change in a side signal; the % refers to the signal ratio;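 further: reporter cells co-stimulated with 50 nM rosiglitazone agonist during compound treatment; % of control where 0% means no effect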); details: HEK293 PPARg-UAS-bla, beta-lactamase ratio, antagonist mode; activity, negative = inhibition: at 76.8 µM (top of the series)
Procedure, shortened: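 Antagonist-mode β-lactamase reporter screen run as a titration series. HEK293 PPARγ-UAS-bla cells are stimulated with rosiglitazone (50 nM final) for 16 h, then CCF4 is read at 460/530 nm. Data are scaled between DMSO and rosiglitazone and fitted to the Hill equation.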
Tags describe the fitted curve by direction and shape.

UniProt P19793, sequence (P19793 whole entry, looked up): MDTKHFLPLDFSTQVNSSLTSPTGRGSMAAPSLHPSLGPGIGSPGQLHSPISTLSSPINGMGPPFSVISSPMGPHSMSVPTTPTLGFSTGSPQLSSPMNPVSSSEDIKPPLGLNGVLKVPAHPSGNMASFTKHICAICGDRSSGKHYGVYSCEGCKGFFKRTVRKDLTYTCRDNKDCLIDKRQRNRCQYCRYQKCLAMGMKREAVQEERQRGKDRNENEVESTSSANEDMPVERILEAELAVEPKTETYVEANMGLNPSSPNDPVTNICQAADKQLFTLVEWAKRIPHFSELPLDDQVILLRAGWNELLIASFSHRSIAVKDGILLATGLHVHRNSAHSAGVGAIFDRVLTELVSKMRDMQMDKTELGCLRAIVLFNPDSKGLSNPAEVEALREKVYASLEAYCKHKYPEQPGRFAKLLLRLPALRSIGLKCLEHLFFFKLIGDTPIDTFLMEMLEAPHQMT
UniProt P01375, sequence (P01375 whole entry, looked up): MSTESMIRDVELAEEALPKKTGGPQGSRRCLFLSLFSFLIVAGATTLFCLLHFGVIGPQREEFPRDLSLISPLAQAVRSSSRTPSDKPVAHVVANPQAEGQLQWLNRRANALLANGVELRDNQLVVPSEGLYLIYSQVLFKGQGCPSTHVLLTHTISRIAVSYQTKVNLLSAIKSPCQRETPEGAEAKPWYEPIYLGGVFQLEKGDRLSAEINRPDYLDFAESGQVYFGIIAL
UniProt P37231, sequence (P37231 whole entry, looked up): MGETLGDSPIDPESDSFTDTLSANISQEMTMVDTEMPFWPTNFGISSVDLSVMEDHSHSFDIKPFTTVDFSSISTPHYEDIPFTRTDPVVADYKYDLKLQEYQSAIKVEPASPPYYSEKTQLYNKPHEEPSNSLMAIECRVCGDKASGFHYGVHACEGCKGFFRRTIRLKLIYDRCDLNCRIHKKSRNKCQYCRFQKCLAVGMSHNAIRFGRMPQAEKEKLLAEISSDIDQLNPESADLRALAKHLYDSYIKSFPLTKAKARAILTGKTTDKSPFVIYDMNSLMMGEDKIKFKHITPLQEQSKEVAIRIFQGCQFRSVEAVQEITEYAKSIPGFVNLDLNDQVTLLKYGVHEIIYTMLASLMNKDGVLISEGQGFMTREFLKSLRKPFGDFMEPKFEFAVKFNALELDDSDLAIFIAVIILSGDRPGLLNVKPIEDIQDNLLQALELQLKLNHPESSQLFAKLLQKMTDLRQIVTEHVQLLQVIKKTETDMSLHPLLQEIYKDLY

Oc1ccc(O)c2c(O)cccc12
inconclusive: Potency [3] 37.6 µM [inhibitor, partial curve] | activation (TNF-alpha secretion) [4] 0.894% | Potency [6] 84.1 µM [activator, partial curve, poor fit] | Potency [7] 66.8 µM [cytotoxic, partial curve]
active: Potency [2] 42.2 µM | Potency [5] 75 µM
inactive: Potency [1]

CCCCC(CC)COP(=O)(OCC(CC)CCCC)OCC(CC)CCCC (stereo not given)
inactive: Potency [12] | Potency [7]
inconclusive: Potency [8] 97.5 µM [partial curve] | activity change, negative = cytotoxicity [9] -52.9% | activity change, negative = cytotoxicity [10] -42.5% | activity change, negative = inhibition [11] -19.9% | activation [2] 6.25% | activation [5] 28.6%
